Experimental data: paper PMC10668032
This is one part of the list. At the low end of the ranking, values are background and their order means little.

molecular target: SIX1-Q177R homeodomain (UniProt Q15475); experiment: universal protein binding microarray; conditions: Universal all-10-mer PBM (8x60K, AMADID 030236), 300 nM GST-tagged protein, Alexa Fluor 488 anti-GST; buffer, salt, pH and temperature not stated; high values mean tight binding; most listed sequences are background and not binding sites; double strand, one strand shown

Sequence | binding signal [E-score]
AACAAAGC | -0.23
CATCAGAA | -0.0815
AGAAACCG | 0.0383
AACGGACC | -0.0941
ACAGGTAG | -0.0968
CTCGACAC | 0.419
AAACCAGT | -0.161
GTGTTAGA | 0.41
GCTGAAAC | -0.0491
ATGAGCTA | -0.243
AGTAACTA | -0.113
AGTGCTAA | 0.0602
ACTTGGAA | -0.0424
CAGTGAGA | -0.243
AGTCATTG | 0.0182
CGTATAGC | -0.00682
AACGCGAA | -0.0762
ATCGATTG | -0.205
CCACTTGA | 0.0543
AGTGCCGC | -0.131
CTGCGCTC | -0.136
GGTGATAC | 0.313
AAATAGCT | -0.294
CCGGCTTA | 0.125
CAACCCAG | 0.0495

Sequence | binding signal [E-score]
ATTGGTTG | -0.162
AGAATAGG | -0.0721
GATCTTGA | -0.0532
CCGCTCAC | -0.00782
AGCACTAC | 0.0363
CCTTGCTC | -0.0168
AGTTGTAT | 0.115
TGCTCCCA | 0.0563
CTTATGCC | 0.0225
CAGTTTTA | -0.204
CACGGCCG | 0.188
CGTAGTCA | -0.128
ATATTGCG | -0.111
CACAGTTA | 0.063
GGCTTCCC | -0.127
AGGCCAGA | -0.127
ACATCACA | 0.116
GGCCGTAC | 0.115
AAAATTCA | -0.124
CGTTTAGC | 0.0763
TGGGCAAA | -0.195
AGTAGAGA | 0.00533
CAGCTGAG | -0.0761
ACCGCATC | 0.0177
ACCATCCA | 0.215

Sequence | binding signal [E-score]
AATTTATG | -0.0755
CGGAGCAC | 0.116
ATTGACAC | 0.438
GGCAATAC | -0.123
TCTGCACA | 0.00479
AGATGACG | -0.0955
AAGTCTTC | -0.289
TACCAAAA | -0.0799
CTTCGTGA | -0.00836
GATAACAC | 0.433
CCACCCAC | 0.0993
ATCGAGAC | -0.0448
GAGGCGCC | -0.238
GAAGGAGA | -0.111
CCTACCTC | -0.148
ACCCCCGC | 0.318
ATATTTGG | -0.0639
CATTACCC | 0.0884
AATCCATA | -0.0257
GCGCCAAC | -0.0964
ATGGGACA | 0.123
CACATCGC | -0.0298
CACTGTTC | 0.059
AATGGCCA | -0.231
ACCTCCTC | 0.0431

Sequence | binding signal [E-score]
AAACTTGA | -0.244
TCCGCTAA | -0.0821
CGGTTTGC | -0.197
AGACGCGA | -0.00654
CTAGAAAG | -0.0423
ATGTCCTG | -0.291
AATAACAG | -0.128
AATGCTGC | -0.16
ATTGAGAG | -0.0682
GACGTGTA | 0.368
CACCGCGC | 0.286
ACAAATGA | -0.241
CCCGCTAC | 0.0698
GGAGGCAA | -0.0709
GCGTATGA | 0.0432
GCTTATCC | 0.108
ATAAACGC | -0.137
TATCGTCA | 0.211
CTTGGAGC | -0.13
TGCCGGAA | 0.00717
AGCACAGG | -0.068
AACCACTT | -0.13
CGGCGTAG | -0.0256
CGGACATC | -0.21
AGTTGGTA | 0.0683

Sequence | binding signal [E-score]
AGGTTTCA | 0.0855
AGCATACA | 0.132
AAGAGCGA | -0.213
CTGCTTCA | -0.0646
AGCTTTGC | -0.274
ATGGGTCC | 0.0249
GACTGCTC | -0.244
TCCATCCA | -0.0863
CGTCCACC | -0.132
CCATTAAA | -0.102
AGGCCCAT | -0.243
CCATTAAG | 0.0396
ACCCAAGT | 0.157
GCATTGCC | -0.0851
CTGCTCTC | -0.145
CAGTTTCA | -0.125
CGGCGGTA | -0.0315
ATACTTTA | -0.041
CAGGGTGC | 0.124
GTTCGACA | 0.211
AAGGGTGC | 0.149
ACAACCGC | 0.106
AGCTGAGA | -0.237
AGATATAG | -0.0576
CCAAGTCA | -0.0639

Sequence | binding signal [E-score]
TTCAGGAA | -0.209
ACTGCGGG | 0.0815
CGAGTGCC | -0.0391
GGCGTCTA | -0.0699
CTACTTCC | -0.054
CCACAAAA | -0.0585
AAAGTACC | -0.0231
CCGCTACG | -0.0722
GCATACGA | -0.145
TGCGGTAA | -0.151
CGTGACAC | 0.454
AAAATGTG | -0.112
CGGATGGA | -0.152
GGGGTCAA | 0.253
GGTACTAA | 0.127
CGGGCGTA | 0.0802
ATTGGGAG | -0.055
AGGGGGAC | -0.0123
CCTGTTGC | -0.066
CAATGTGA | -0.0861
GAGCGATC | -0.169
ACTAGTCA | -0.0327
ATAGTCAG | -0.124
CAAGCGAA | -0.216
AGTAATGG | 0.0534

Sequence | binding signal [E-score]
GACGCCCA | 0.0997
AGGAAGCG | -0.235
ACTAGATG | 0.0643
GATCTATA | -0.116
ATGGGCCC | -0.238
GGCAGGCC | -0.303
CTCGCAAA | -0.108
GGCATGAC | -0.125
GATTGGGC | -0.194
GGCCGACA | 0.0563
ACCGGTCC | -0.122
ACCATACA | 0.32
ATAAATCA | 0.00587
AAAGTCCC | -0.169
TCAATGAA | -0.0866
CCTAGGTA | 0.0378
CCGGATCC | 0.249
CATGCTTA | 0.0208
ACTACGAA | -0.0791
TATAGACA | 0.28
ATCCCCCC | 0.197
TGACGACA | 0.212
CCTGCGTA | -0.0428
AGGTGACA | 0.251
ATACCTAT | 0.0929

Sequence | binding signal [E-score]
ACGATGCC | -0.156
GGTTTTTA | -0.00611
CATCACCG | -0.00649
CCGGCGGC | -0.195
TATCTACA | 0.202
GGCGGCAC | -0.0151
GAGCCGGA | -0.0316
CAACAGGG | -0.0231
ACTATGGA | -0.0202
GTGGCGTA | 0.134
AGCCTATC | -0.181
TCGCGCAA | -0.0775
ACAAGCGT | -0.0148
CGCTTAAG | -0.0394
GCGCAGCA | -0.0426
GACTAGCC | -0.243
CATGGGGA | 0.126
ATTTAAAC | 0.0723
GAGTTATC | 0.0756
ATGTAACG | 0.0103
GATAACAA | 0.0184
ACAGATGC | -0.269
CAAAACCA | -0.00329
CCTGCGGC | 0.00473
AATACAAC | 0.0284

Sequence | binding signal [E-score]
ACAGATTA | -0.172
GAATGGGA | -0.23
CCAGCACA | 0.111
CTATAACC | 0.0556
AGACGTTA | -0.137
AAGTTAAC | 0.0305
CTCTTCGC | -0.102
GGGTTTAA | 0.232
CAATGGAC | -0.123
ATAACCAA | -0.288
ATAAAAGA | 0.063
ACAGCTCT | -0.169
CGGTGGTA | 0.105
AGAGGGCG | -0.1
CGCAAAGA | -0.0951
CCTCTGGC | -0.0166
AAACAGGA | -0.00667
CGGTTGAA | -0.0287
CAAGACAG | 0.00975
GCCACGAA | -0.0235
AGAATCCT | -0.198
ACTCGAGT | 0.125
GGTAAGCA | -0.0574
CGTAACAG | -0.0492
CAGACATA | -0.0692

Sequence | binding signal [E-score]
AAGCACGG | 0.00957
AGGTTACT | -0.0221
TGCGCAAA | -0.203
TCTTATCA | -0.0614
CTTACCCA | 0.138
GGCCTGTA | -0.219
TAACGAAA | -0.122
CTTCTATA | -0.0674
AAAGAGAG | -0.154
GGCTTGAA | -0.113
GTGCCCCA | 0.0418
AGTCAATA | 0.0279
ATAAACAT | -0.192
GGCGAGCC | -0.131
ACCAAAAA | 0.027
CCGTGTCC | 0.408
AGAGCAGC | -0.116
ATAGAATG | -0.139
ACTTTAGA | -0.156
ATGTGTTC | 0.0422
ATACATTG | -0.0865
ACCTAATC | -0.162
CAGTATCA | 0.2
CGTGTCGC | 0.44
CTCTACGA | -0.0029

Sequence | binding signal [E-score]
CAATGGTC | -0.117
AATCAGGC | -0.222
GTGACTTA | 0.0306
CAATAAAC | -0.104
GCATGCCA | -0.203
ACATCCCT | -0.0909
CATAGTAG | 0.0661
TGAATGAA | -0.122
GGACTTCA | -0.0434
ATGAAGAG | -0.0892
GGCGATAC | 0.174
ACCGTAAG | -0.114
AGTTGACA | 0.0518
ATGGGGCC | -0.219
CGGCCCTC | -0.0696
AGCTCTGG | -0.269
AGAGCGCC | -0.156
TGAGTCCA | -0.0891
GTTGAAAC | -0.00734
GCGCTATA | -0.112
ATGTTGGC | -0.221
ACGTGAGA | -0.133
TATACTGA | -0.0903
ATTGGCAC | 0.0709
AAACCCGC | -0.00813

Sequence | binding signal [E-score]
AAACGACG | -0.0852
ATACTTGA | 0.101
CTCTCAGA | -0.314
TAAAGCGA | -0.0859
ACAACAAG | -0.165
GTTTCACA | 0.161
CATCTACA | 0.0516
CCAGCTAC | 0.00288
CGGCTACA | 0.133
GCTAAATA | -0.105
CTAACAGC | -0.202
AACATCGT | -0.143
AGATAATC | -0.0432
CGGAACAG | -0.208
ATGTGCTA | -0.292
GCCCCTCA | 0.0147
GATGGCTA | -0.0909
CTAGGGGA | 0.0148
ATCCCGAC | 0.133
AAGGGGTC | 0.17
GTGTCCGA | 0.413
ATCCGGTG | 0.354
AAGGACTG | -0.304
AACCGGAT | 0.0221
GTGGACGA | -0.0957

Sequence | binding signal [E-score]
AAGTAAGT | -0.0907
CGAAACCG | -0.0407
AGGAATAG | -0.108
ACTGACGA | -0.0804
CGTAGGAA | -0.0289
CATTACGC | -0.0757
CGTGAGCA | -0.0853
GACTCATC | -0.07
ACCCTATC | 0.17
ACGATCGT | 0.0151
CGCATGCC | -0.225
GTTCGTTA | -0.155
AGAGAACA | 0.113
CCTACTTA | 0.131
AAACCTTT | -0.194
CGATACTC | 0.211
CCGCCATA | 0.0141
GCAAAAAA | -0.143
ATTATAGG | -0.125
GACTTCAC | -0.0555
CCTTGTTC | 0.015
CAGACCGG | -0.201
ACGGCTCC | -0.0148
CAGTCGCC | -0.245
AAAGGTAG | -0.132

Sequence | binding signal [E-score]
ATCTTACC | -0.0243
GTGCATGA | -0.0382
ACTAAGAT | 0.0663
CGTCCTCA | -0.189
GGCTAGAA | -0.0468
TATGACCA | -0.204
ATGCTGAG | -0.0829
TCTTAGCA | -0.209
ATGCATAC | -0.106
GAATGTAC | -0.165
CGATTGGC | -0.0217
GGACATTA | 0.0691
GTCAGATA | 0.0594
GCCATAAA | -0.141
CCTACGAC | 0.0906
GCCGTGAC | 0.0847
CGAGGTGA | -0.0309
ACTCCGCC | 0.179
GGTCCGAA | -0.0655
